Measurements published in the BET-seq Pho4 binding data (Le et al. 2018).
The other results are listed elsewhere or left out. The energies were worked out here from pooled read counts, against the library average; single values are noisy.

The sequences below were run against T1, Pho4 (S. cerevisiae) (UniProt P07270) (assay: relative binding free energy (BET-seq); higher = weaker binding). Conditions: reference: library average.
T1 sequence: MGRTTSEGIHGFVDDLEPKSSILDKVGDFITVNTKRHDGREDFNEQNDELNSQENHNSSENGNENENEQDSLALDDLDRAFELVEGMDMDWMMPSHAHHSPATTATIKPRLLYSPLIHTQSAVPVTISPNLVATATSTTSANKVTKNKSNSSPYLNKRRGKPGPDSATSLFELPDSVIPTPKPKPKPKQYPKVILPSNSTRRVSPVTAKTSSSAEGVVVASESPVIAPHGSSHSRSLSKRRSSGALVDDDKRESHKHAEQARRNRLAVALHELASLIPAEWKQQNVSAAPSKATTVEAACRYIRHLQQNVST

| Sequence | relative binding free energy |
| --- | --- |
| CGAGTCACGTGGCGGG | 0.13 kcal/mol |
| AACCGCACGTGGGGTG | -0.14 kcal/mol |
| AGCGTCACGTGTGGGA | 0.09 kcal/mol |
| AAGTTCACGTGAAATT | 0.36 kcal/mol |
| TCGGGCACGTGGATTG | -0.01 kcal/mol |
| TGGTGCACGTGCAAAG | -0.08 kcal/mol |
| TGACACACGTGTTGTT | -0.06 kcal/mol |
| AGGGTCACGTGTCATA | 0.11 kcal/mol |
| GTTATCACGTGATCTG | 0.31 kcal/mol |
| TTATGCACGTGGCTTT | -0.05 kcal/mol |
| ATTGACACGTGATGTC | 0.2 kcal/mol |
| CAGATCACGTGTGATG | 0.44 kcal/mol |
| CCAGGCACGTGGTGGG | -0.15 kcal/mol |
| AGTATCACGTGCGCGG | 0 kcal/mol |
| AGCGGCACGTGAGGGC | 0.24 kcal/mol |
| TTTAACACGTGGGGCA | -0.06 kcal/mol |
| TGAGGCACGTGGTATA | -0.12 kcal/mol |
| ATTAACACGTGTTGAT | 0 kcal/mol |
| GGATTCACGTGGATGT | 0.23 kcal/mol |
| TTTGTCACGTGGACAA | 0.11 kcal/mol |
| TTAATCACGTGTCGAG | 0.2 kcal/mol |
| TAGAACACGTGGGCGT | -0.1 kcal/mol |
| CGAGTCACGTGGGCCG | 0.15 kcal/mol |

| Sequence | relative binding free energy |
| --- | --- |
| TGTTTCACGTGAGTGA | 0.33 kcal/mol |
| TAAGGCACGTGATGTT | -0.05 kcal/mol |
| CGAGTCACGTGGTGTA | -0.03 kcal/mol |
| AAGCTCACGTGTATGT | 0.13 kcal/mol |
| TTACCCACGTGTTGGT | -0.11 kcal/mol |
| TGCGACACGTGTGAGG | 0.01 kcal/mol |
| CTATGCACGTGTTGAG | -0.11 kcal/mol |
| GGGTGCACGTGGTAGT | -0.03 kcal/mol |
| ATATTCACGTGATTCT | 0.24 kcal/mol |
| TAAGTCACGTGTTGAG | 0.09 kcal/mol |
| TACAGCACGTGTGTGG | -0.19 kcal/mol |
| TCCTGCACGTGTTGGG | 0.04 kcal/mol |
| AAGTGCACGTGGAGTG | -0.01 kcal/mol |
| GCTTTCACGTGATGTT | 0.3 kcal/mol |
| ATGTTCACGTGTATCG | 0.25 kcal/mol |
| CTGAGCACGTGTAGTA | -0.05 kcal/mol |
| TGCATCACGTGATGTT | 0.15 kcal/mol |
| TAGGGCACGTGTATAA | -0.06 kcal/mol |
| AGAGGCACGTGTTATA | -0.2 kcal/mol |
| GTAGGCACGTGTCAGA | 0.01 kcal/mol |
| TGTGTCACGTGGCATT | 0.11 kcal/mol |
| TTCTACACGTGGGGTA | -0.08 kcal/mol |
| AATTTCACGTGGATAT | 0.22 kcal/mol |

| Sequence | relative binding free energy |
| --- | --- |
| GAGCGCACGTGTGGGG | -0.01 kcal/mol |
| TTGATCACGTGTCGTT | 0.19 kcal/mol |
| CGTTTCACGTGGTGTA | 0.21 kcal/mol |
| GGGGGCACGTGTCGTG | 0.01 kcal/mol |
| CTGGTCACGTGTGATT | 0.26 kcal/mol |
| GTGGGCACGTGGGTTG | -0.19 kcal/mol |
| TGGGGCACGTGTCTTA | -0.08 kcal/mol |
| TGGGTCACGTGGACTA | 0.16 kcal/mol |
| GCGTGCACGTGTAAGG | 0.1 kcal/mol |
| TAGGTCACGTGGGGTC | 0.07 kcal/mol |
| GGGAACACGTGAAGAG | 0.41 kcal/mol |
| GTTTTCACGTGGTTGT | 0.33 kcal/mol |
| AGTTACACGTGTGGAT | 0.11 kcal/mol |
| GAGTACACGTGGTTGT | 0.05 kcal/mol |
| TAGTGCACGTGCCGTT | -0.14 kcal/mol |
| AAGATCACGTGGTTTG | 0.14 kcal/mol |
| GGGTACACGTGGACGT | 0 kcal/mol |
| GTGGGCACGTGAGGTT | 0.19 kcal/mol |
| AAGTGCACGTGGGGGA | -0.11 kcal/mol |
| GTTATCACGTGGGTTG | 0.05 kcal/mol |
| GTTGGCACGTGATCGT | 0.02 kcal/mol |
| GAATGCACGTGTTGGT | 0.08 kcal/mol |
| CGTCTCACGTGTTTGT | 0.23 kcal/mol |

| Sequence | relative binding free energy |
| --- | --- |
| TATATCACGTGGGATG | 0.02 kcal/mol |
| TGTGTCACGTGAAACG | 0.13 kcal/mol |
| GGTCACACGTGGTTAA | 0.03 kcal/mol |
| TGGATCACGTGACATT | 0.35 kcal/mol |
| GGGTTCACGTGGAAGT | 0.45 kcal/mol |
| AATATCACGTGTGGCG | 0.1 kcal/mol |
| AAGGACACGTGTAAGT | 0.25 kcal/mol |
| AGGAACACGTGTGCGG | -0.06 kcal/mol |
| TTTAGCACGTGTCAGG | 0.05 kcal/mol |
| AAGTTCACGTGAGTCG | 0.48 kcal/mol |
| TTAGTCACGTGAGTGA | 0.24 kcal/mol |
| TGTCGCACGTGGGAAA | 0.01 kcal/mol |
| GTGTCCACGTGGTTAG | 0.06 kcal/mol |
| TGTATCACGTGAAGCG | 0.18 kcal/mol |
| CGACGCACGTGGGGGA | -0.27 kcal/mol |
| GGGGGCACGTGTGAAA | 0.01 kcal/mol |
| GTATTCACGTGGTGAA | 0.12 kcal/mol |
| GGAGCCACGTGGCGGT | -0.16 kcal/mol |
| TAGTTCACGTGAGTGT | 0.51 kcal/mol |
| AAGTGCACGTGGCTGC | 0 kcal/mol |
| GCGGGCACGTGTGGGA | 0.08 kcal/mol |
| TTTTTCACGTGACTGG | 0.35 kcal/mol |
| TTAGGCACGTGGGGCC | -0.19 kcal/mol |

| Sequence | relative binding free energy |
| --- | --- |
| TTATGCACGTGGGTCC | -0.17 kcal/mol |
| GTGGACACGTGGGATT | 0.02 kcal/mol |
| GGCTGCACGTGTGTGG | 0.1 kcal/mol |
| TCGGGCACGTGGAGTA | -0.2 kcal/mol |
| TGTAACACGTGCAGGG | -0.05 kcal/mol |
| GTTTTCACGTGGCGTA | 0.21 kcal/mol |
| GATGGCACGTGTAGAA | 0.05 kcal/mol |
| TGTACCACGTGGGTAG | -0.2 kcal/mol |
| AGCATCACGTGGTGTG | 0.02 kcal/mol |
| TGAATCACGTGGGAGT | 0.23 kcal/mol |
| AGGCGCACGTGGGTCT | -0.34 kcal/mol |
| AGGGACACGTGCGAGT | 0 kcal/mol |
| CTTCTCACGTGTTGTA | 0.19 kcal/mol |
| ACTTTCACGTGGGTTA | 0.31 kcal/mol |
| TGCACCACGTGGGAGG | -0.16 kcal/mol |
| GCTTGCACGTGATTTG | 0.18 kcal/mol |
| TCTGGCACGTGGCGGC | 0.04 kcal/mol |
| CTAGTCACGTGTTTAG | 0.01 kcal/mol |
| GGTCGCACGTGAGGAA | 0.32 kcal/mol |
| TGGCTCACGTGGGTAC | 0.22 kcal/mol |
| CGGTGCACGTGGCTTG | -0.15 kcal/mol |
| GTTTACACGTGCTTAG | 0.21 kcal/mol |
| TGTAGCACGTGCTTTG | -0.2 kcal/mol |
